In PubChem BioAssay AID1865 (National Center for Advancing Translational Sciences (NCATS), 2009):
Screen size: about 280,000 compounds; about 540 (0.19%) were called active. The inconclusive results got no clear call from the source; some entries with a clear call stand among them for comparison. The call rests on the fitted dose curve; in most records, active means well fitted activation curve with a large enough effect; inconclusive means small, poorly fitted or top-dose-only effect; inactive means flat fitted curve, though single readings scatter. Where the call is inconclusive, the potency comes from a doubtful curve fit.

experiment: Quantitative High-Throughput Screen for Regulators of Epigenetic Control; details: murine LDR cells, GFP reporter derepression, 30 h; GFP activation: at 53.9 µM (top of the series); further: nearly all actives have a fitted effect of over 60% in size; on GFP activation: % of control where 0% means no effect
In short: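 Derepression of a silenced CMV-GFP reporter in murine LDR cells is scored by enumerating GFP-positive cells with a laser-scanning microplate cytometer after 30 hours of treatment at 37 C.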
Potency means the concentration at half of the fitted maximal effect; tags describe the fitted curve by direction and shape.

Row | SMILES | Potency | GFP activation
1 | CCCc1cnc2c(c1SCC(=O)Nc1ccccc1F)c(=O)n(C)c(=O)n2C | inconclusive: 0.562 µM [activator, single point] | 
2 | CCOC(=O)CS(=O)(=O)c1nc(-c2ccc(F)cc2)cc(C(F)(F)F)n1 | inconclusive: 5.62 µM [activator, single point] | 
3 | S=C1SCN(Cc2ccco2)CN1Cc1ccco1 | inconclusive: 5.62 µM [activator, single point] | 
4 | Cc1[nH]nc2c1C(c1cccc(O)c1)C1=C(CC(C)(C)CC1=O)N2 (stereo unspecified) |  | inactive: 0.758%
5 | CCOc1ccc(CCNC(=O)c2ccc3c(c2)sc2nc(-c4ccc(F)cc4)cn23)cc1OCC | inconclusive: 35.5 µM [activator, single point] | 
6 | Cc1ccc(Cl)cc1NC(=O)Cn1ncc2c(C)n(Cc3ccccc3F)c(C)c2c1=O | inconclusive: 15.8 µM [activator, single point] | 
7 | Cn1cc(-c2nnnn2-c2cccc(C(F)(F)F)c2)c(C(F)(F)F)n1 |  | inactive: 2.24%
8 | C[C@@H]1C[C@@H]([C@@H](C)CC2CC(=O)NC(=O)C2)C(=O)[C@@H](C)C1 | inconclusive: 2.51 µM [activator, partial curve] | 
9 | Cc1ccc(C(=O)NC(=S)NCc2cccnc2)cc1 | inconclusive: 0.1 µM [activator, full curve, poor fit] | 
10 | COc1ccc(-c2csc(NC3OC(=O)c4c3ccc(OC)c4OC)n2)cc1OC (stereo unspecified) | inconclusive: 12.6 µM [activator, partial curve, poor fit] | 
11 | Cc1cnc(CNc2ncnc3ccc(-c4ccccc4CN(C)C)cc23)cn1 | inconclusive: 15.8 µM [activator, single point] | 
12 | COc1ccc(OC)c(NC(=O)C2C3CCC(C3=C(C)C)C2C(=O)O)c1 (stereo unspecified) |  | inactive: -2.27%
13 | O=C(CSc1nccc(=O)[nH]1)NN(c1ccccc1)c1ccccc1 | inconclusive: 35.5 µM [activator, single point] | 
14 | CN(C)c1ccc(/C=C2\SC(=S)N(Nc3ncc(C(F)(F)F)cc3Cl)C2=O)cc1 | active: 14.1 µM | 
15 | Fc1cccc(F)c1/C=N/NC(=S)Nc1cccnc1 | inconclusive: 17.8 µM [activator, single point] | 
16 | O=C(O)/C=C/C(=O)NNC(=O)c1ccccc1Br |  | inactive: -3.12%
17 | COc1cc(Cl)c(NC(=O)CN2C(=O)c3cccnc3Sc3ccccc32)c(OC)c1 | inconclusive: 25.1 µM [activator, single point] | 
18 | N#C/C(=C(/O)c1ccc(F)cc1)c1nc2ccccc2s1 |  | inactive: 3.9%
19 | CC(C)(C)c1cc(C(c2cccnc2)N2CCN(CCO)CC2)cc(C(C)(C)C)c1O (stereo unspecified) | inconclusive: 5.62 µM [activator, single point] | 
20 | Cc1ccc(N2C(=O)c3cccc4c(N5CCN(C)CC5)ccc(c34)C2=O)c2cccnc12 | inconclusive: 35.5 µM [activator, single point] | 
21 | NC(=S)N=Nc1c(O)n(Cc2ccccc2)c2ccccc12 | inconclusive: 31.6 µM [activator, single point] | 
22 | CCCCNC(=O)CSc1nc2ccc(N3CCOCC3)cc2c(=O)n1CCc1ccccc1 |  | inactive: 1.04%
23 | CC(=O)c1ccc(NC(=O)c2cnc(N3CCCC3)nc2C)cc1 | inconclusive: 6.31 µM [activator, single point] | 
24 | COc1ccc(OCc2cc(-c3ccc(Cl)cc3)no2)cc1 |  | inactive: -0.146%

Row | SMILES | Potency | GFP activation
25 | c1cncc(-c2nn3c(Cn4cnc5ccccc54)nnc3s2)c1 |  | inactive: -15.9%
26 | CC(C)OC(=O)c1c2c(n3ccccc13)C(=O)c1ccccc1C2=O | active: 10 µM | 
27 | Cc1ccc(CNC(=O)CCCCCn2c(=O)c3sccc3n(CC(=O)C(C)(C)C)c2=O)cc1 |  | inactive: -0.937%
28 | O=C1c2ccccc2-c2onc3ccc(N4CCCC4)c1c23 | inconclusive: 35.5 µM [activator, single point] | 
29 | CC(C)C[C@H](NC(=O)c1nc[nH]c1C(=O)NC1CCN(C(=O)OC(C)(C)C)CC1)C(=O)OCc1ccccc1 | inconclusive: 15.8 µM [activator, partial curve] | 
30 | Cc1ccc2[nH]c3c(=O)n(CC(=O)N4CCN(c5ccccc5F)CC4)ncc3c2c1 |  | inactive: 0.833%
31 | S=c1[nH]nc(-c2cccnc2)n1/N=C/c1ccco1 |  | inactive: 4.57%
32 | CCCC(=O)N1CCN(c2ccc(NC(=O)c3ccc([N+](=O)[O-])o3)cc2Cl)CC1 | inconclusive: 2.82 µM [activator, partial curve] | 
33 | Cc1ccc(OCc2cc(=O)n3c(-c4ccccc4)csc3n2)cc1 | inconclusive: 15.8 µM [activator, single point] | 
34 | Cc1ccc(NC(=O)C(=O)NCC(c2ccc3c(c2)OCO3)N2CCN(C)CC2)cc1C (stereo unspecified) | inconclusive: 35.5 µM [activator, single point] | 
35 | Cc1ccc2nc(/C(C#N)=C/c3ccc(-c4ccc(C(=O)OC(C)C)cc4)o3)[nH]c2c1 | active: 1.41 µM | 
36 | CCCCCCc1cc2cc(-c3nnc(-c4ccccc4OC)o3)c(=O)oc2cc1O | inconclusive: 3.16 µM [activator, partial curve] | 
37 | Nc1nc(-c2cccc(NS(=O)(=O)c3ccccc3)c2)cs1 |  | inactive: 0.901%
38 | Cc1ccc(-c2noc(N=O)c2NO)cc1 | inconclusive: 31.6 µM [activator, single point] | 
39 | CC1(C)C(=O)OC(c2c(F)c(F)c(F)c(F)c2F)C2(CCCCC2)C1=O (stereo unspecified) |  | inactive: -1.14%
40 | COC(=O)c1sccc1NC(=S)Nc1cc(C)cc(C)c1 |  | inactive: -0.98%
41 | COc1ccccc1NS(=O)(=O)c1cc([N+](=O)[O-])ccc1N/N=C/c1sc(N2CCOCC2)nc1-c1ccccc1 | active: 2.82 µM | 
42 | CCOC(=O)/C=c1\s/c(=C\c2ccccc2C)c(=O)n1CC(=O)NCc1ccc2c(c1)OCO2 | inconclusive: 31.6 µM [activator, single point] | 
43 | CCN(CC)CCNCc1ccc(-c2ccc(Cl)cc2)o1 | inconclusive: 6.31 µM [activator, single point] | 
44 | Fc1cccc(C[n+]2csc3ccccc32)c1 | inconclusive: 25.1 µM [activator, single point] | 
45 | CSc1nsc(/C=C/Nc2ccc(O)cc2C)c1C#N | inconclusive: 22.4 µM [activator, single point] | 
46 | Cc1ccccc1Nc1nc(CSc2nnc(-c3ccoc3C)n2C)cs1 |  | inactive: -1.68%
47 | CCc1nonc1NC(=O)c1oc2cc(C)c(C)cc2c1C | inconclusive: 4.47 µM [activator, single point] | 
48 | O=[N+]([O-])c1ccc(NCCNCCOc2nonc2-c2ccccc2)c([N+](=O)[O-])c1 |  | inactive: -1.91%

Row | SMILES | Potency | GFP activation
49 | Cc1cc(-c2csc3nc[nH]c(=S)c23)cc(C)c1C |  | inactive: -0.152%
50 | O=[N+]([O-])c1ccccc1C1Nc2cccc3cccc(c23)N1 | inconclusive: 2 µM [activator, partial curve] | 
51 | Cc1ccc(C(C)C)c(OCc2nn(CC(=O)c3ccc(Cl)cc3)c3[n+]2CCCCC3)c1 | inconclusive: 35.5 µM [activator, single point] | 
52 | COc1cc(/C=C(\C#N)c2nc3c(s2)CC(C)CC3)ccc1O (stereo unspecified) | inconclusive: 25.1 µM [activator, single point] | 
53 | COc1ccc(N=Cc2oc3ccc4ccccc4c3c2O)cc1 | inconclusive: 35.5 µM [activator, single point] | 
54 | Cc1sc2nc(CSc3ccc([N+](=O)[O-])cc3)[nH]c(=O)c2c1C | inconclusive: 31.6 µM [activator, single point] | 
55 | CN(C)c1ccc(NC(=O)Cn2cc(S(=O)(=O)Cc3ccccc3Cl)c3ccccc32)cc1 |  | inactive: 9.71%
56 | COc1ccc(C(=O)Nc2ccc(Cl)c(S(=O)(=O)Nc3ccccc3OC)c2)cc1 |  | inactive: -2.17%
57 | COc1cc(/C=N/Nc2nc3ccccc3[nH]2)cc(OC)c1O | inconclusive: 35.5 µM [activator, single point] | 
58 | CCOC(=O)c1c(NC(=O)c2ccccc2C)sc2c1CC(C)(C)OC2 |  | inactive: 0%
59 | COc1cccc(NC(=O)CCc2nnc3n(Cc4ccccc4Cl)c(=O)c4ccccc4n23)c1 | inconclusive: 35.5 µM [activator, single point] | 
60 | O=C(NCc1ccc(Cl)cc1)c1ccc2c(c1)NC(=O)C(CS(=O)(=O)Cc1ccc(F)cc1Cl)N2 (stereo unspecified) | inconclusive: 22.4 µM [activator, single point] | 
61 | Cc1cc(C(=O)CCl)c(C)n1-c1ccon1 | inconclusive: 35.5 µM [activator, single point] | 
62 | COCCNC(=S)N/N=C(\C)c1ccc(Cl)s1 | inconclusive: 25.1 µM [activator, single point] | 
63 | N#Cc1c(-c2ccco2)cc(-c2ccc(F)cc2)nc1N |  | inactive: -0.952%
64 | Cc1cc[n+](-c2[nH]c(=O)sc2/C=N/N=C(\[O-])c2ccccc2)cc1 |  | inactive: 0.0768%
65 | COc1ccc(Cl)cc1NC(=S)NN1CCOCC1 |  | inactive: -2.27%
66 | CC(C)NC(=S)NN=C1CCCCCCCCCCC1 | inconclusive: 31.6 µM [activator, single point] | 
67 | O=C(NCc1ccc(F)cc1)c1cc2cccc3c2n1CCS3 |  | inactive: -1.08%
68 | COC(=O)/C(=N/Nc1cccc(C)c1)N1CCCc2ccccc21 | inconclusive: 15.8 µM [activator, single point] | 
69 | CC(=O)[C@]1(O)Cc2c(O)c3c(c(O)c2[C@@H](O[C@H]2C[C@H](N)[C@H](O)[C@H](C)O2)C1)C(=O)c1ccccc1C3=O | inconclusive: 0.794 µM [activator, full curve, poor fit] | 
70 | Brc1ccc(Nc2c3c(nc4nncn24)CCC3)cc1 | inconclusive: 35.5 µM [activator, single point] | 
71 | COc1ccc(OC)c(NC(=O)Cn2c(=O)n(Cc3ccco3)c(=O)c3cc(OC)c(OC)cc32)c1 | inconclusive: 35.5 µM [activator, single point] | 
